According to a collection of fitness landscapes (doi:10.1016/j.celrep.2020.107928):
In all, about 81,000 sequences were measured (“one-hybrid fitness for binding parS DNA”: median about -0.17, highest 2% from about 0.51 on). This is one part of the list.

B1: Caulobacter ParB omega fusion; a variant is named by its letters at X, in order, B8GW30 (parent)
chain: MESVVVGEPGMSEGRRGLGRGLSALLGEVDAAPAQAPGEQLGGSREAPIEILQRNPDQPRRTFREEDLEDLSNSIREKGVLQPILVRPSPDTAGEYQIVAGERAWRAAQRAGLKTVPIMVRELDDLAVLEIGIIENVQRADLNVLEEALSYKVLMEKFERTQENIAQTIGKSXSHVANXMRLLXLPDEVQSYLVSGELTAXHARAIAAAADPVALAKQIIEGGLSVRETEALARKAPNLSAGKSKGGRPPRVKDTDTQALESDLSSVLGLDVSIDHRGSTGTLTITYATLEQLDDLCNRLTRGI

Variants of: B1
Assay: one-hybrid fitness for binding parS DNA (scaled: cognate 1, non-cognate 0); higher = stronger binding
Conditions: with parS DNA site
How it was run: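 Bacterial one-hybrid selection in E. coli USO rpoZ- hisB- pyrF- with a HIS3 reporter carrying the site 19 bp from the promoter, screening Caulobacter ParB libraries with four specificity codons randomised (NNS). Cells grew 48 hours at 37°C on M9-minus-histidine plus 0.1 mM IPTG and 5 mM 3-AT. Plasmids before and after selection were Illumina-sequenced, three replicate libraries pooled, and variants under 10 reads dropped. Fitness is the log change in variant-to-wild-type read ratio, rescaled to cognate 1, non-cognate 0.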

one-hybrid fitness for binding parS DNA, 0.396:
RRLN

one-hybrid fitness for binding parS DNA, 0.649:
RRKC

one-hybrid fitness for binding parS DNA, 0.969:
RTSC
RFGS

one-hybrid fitness for binding parS DNA, ≤ 0.2:
LAHT
NPVR
NMCG
SACF
LWDS
CGCR
TCGG
QFPP
IVFV
SDDG
QIKR
RDWI
TWRK
EHGR
DIDF
SNLQ
PGIG
LRYS
RYCL
QQPW
HAKK
TQSS
NYYG
SPNW
DQGR
HDWG
QKWF
DAAM
YIWS
CVRS
EVAG
AQCT
WAGR
QCTD
ANAC
QHVI
ANAL
REHE
TDKY
GSPT
LDHK
HYLV
HENL
GGGN
KLSY
VNAF
RWLK
KMYT
MAIH
RYLH
QTTR
HVTN
HDGT
PAIG
IPSM
NYAS
QRAS
YPVG
DLTC
PFLT
TPNG
QRFW
QAQG
SSGA
PGVT
QCYF
YLPS
TRKE
AIFL
DMWV
YRRD
EIVT
TQTG
FAAR
KQSN
HAGV
YNER
SKDV
WTHL
PPIA
HCTL
PQKT
THYS
DINR
MCTK
TRNI
PLAS
VPYG
GMCW
DLVR
EDMG
LVTW
PPTY
YRNI
QILW
PGFF
PILS
LPQL
GNAR
RSLL
IKDN
NVKW
CKCG
ADRP
MVKY
CAVS
MYLG
ADVE
KWAT
FYTS
SCMC
PFNV
HYPW
AQGT
KMCS
RHMK
KQMN
LFGV
KRPP
WVLG
PANR
FPHC
RNRF
RIGK
VCVT
QRTE
QTHP
HYTP
TMEN
ADLD
WASQ
EGNR
DPWT
RKSQ
PKQL
TESY
VYTP
TQKY
GQMT
PHVS
MDWV
GTAR
PAEC
WHEL
PNKC
HNKE
YQRV
KKRN
PDSI
LFTT
KVYT
FDHR
SRFE
VPKY
LCLL
HSVE
CDQK
VLIF
CNPS
EVAR
QNAH
CKRA
AGKR
NSRG
RQQK
SQTD
AAYN
AWPF
LMTL
DDTD
RDML
SALR
AGGV
QESA
GYVT
KTSY
MSVV
EYYR
KNKL
RSDW
VWCG
DQKY
RMYE
RHYD
VQWT
VYNY
DMNF
YQYS
TNTS
CNIL
VASQ
QRPG
TTNG
LKKV
IGKL
HASA
YDIE
MMNC
TDRR
RFPR
LNNA
SNVS
QLGT
PRFV
ASES
AICA
HILT
GAQA
ARAH
DAIS
HLQW
QYAV
DTSW
EDSW
RLVI
WPIG
DSYP
AVQF
VPWF
HYCC
EKNC
YCNT
PEAK
DPCA
NVHP
LYMR
PRDV
RRIF
DKRC
ECIG
TTGC
CQRR
SILD
SACT
KSYS
YMCL
ILQK
FPSH
CSSM
NTVA
EIDN
GGLC
KSCV
IRKR
SWNW
WAKY
KTTW
FTYC
KVHI
KMAR
PYCH
YYRT
MNLC
PTHM
CRYC
VMMS
GPAH
SPGS
PHLH
ATRW
TECT
PPYM
AIAR
QFYR
TKDD
GDMS
QRWN
GAFS
TIYS
WNES
EAMF
NIKS
WQCW
KYTT
DDET
TCRT
TMLW
ICDW
HQVE
ISET
TVSH
YVKS
STKS
TRTM
NWTE
PGVI
VARA
PYRF
VWVG
KAIG
VCNS
NLGN
REFM
FIST

one-hybrid fitness for binding parS DNA, 0.256:
LWGM

one-hybrid fitness for binding parS DNA, 0.383:
RCLM

one-hybrid fitness for binding parS DNA, 0.28:
RHAM

one-hybrid fitness for binding parS DNA, 0.29:
RQKW

one-hybrid fitness for binding parS DNA, 0.597:
RRAC

one-hybrid fitness for binding parS DNA, 0.362:
HRCS

one-hybrid fitness for binding parS DNA, 0.943:
RTTS

one-hybrid fitness for binding parS DNA, 0.897:
RKMC
